# Laboratory results published in publication PMC6919601, “Identification of Plasmodium dipeptidyl aminopeptidase allosteric inhibitors by high throughput screening” (PLoS ONE, 2019).
# The campaign covered roughly 110,000 compounds. About 230 (0.21%) showed an effect of 50% or more. The list shows a part of the results.
# Molecular target: DPAP1 (Plasmodium falciparum, UniProt Q8IIJ9)
# Test: primary screen, percent inhibition; read by cleavage of a fluorogenic dipeptide substrate; higher = more effect of the substance
# Design: species or system P. falciparum D10 trophozoite lysates; single well
# 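Also: 30 min substrate incubation versus DMSO and 10 µM JCP410 controls.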
# Sequence of DPAP1 (Q8IIJ9 whole entry, looked up): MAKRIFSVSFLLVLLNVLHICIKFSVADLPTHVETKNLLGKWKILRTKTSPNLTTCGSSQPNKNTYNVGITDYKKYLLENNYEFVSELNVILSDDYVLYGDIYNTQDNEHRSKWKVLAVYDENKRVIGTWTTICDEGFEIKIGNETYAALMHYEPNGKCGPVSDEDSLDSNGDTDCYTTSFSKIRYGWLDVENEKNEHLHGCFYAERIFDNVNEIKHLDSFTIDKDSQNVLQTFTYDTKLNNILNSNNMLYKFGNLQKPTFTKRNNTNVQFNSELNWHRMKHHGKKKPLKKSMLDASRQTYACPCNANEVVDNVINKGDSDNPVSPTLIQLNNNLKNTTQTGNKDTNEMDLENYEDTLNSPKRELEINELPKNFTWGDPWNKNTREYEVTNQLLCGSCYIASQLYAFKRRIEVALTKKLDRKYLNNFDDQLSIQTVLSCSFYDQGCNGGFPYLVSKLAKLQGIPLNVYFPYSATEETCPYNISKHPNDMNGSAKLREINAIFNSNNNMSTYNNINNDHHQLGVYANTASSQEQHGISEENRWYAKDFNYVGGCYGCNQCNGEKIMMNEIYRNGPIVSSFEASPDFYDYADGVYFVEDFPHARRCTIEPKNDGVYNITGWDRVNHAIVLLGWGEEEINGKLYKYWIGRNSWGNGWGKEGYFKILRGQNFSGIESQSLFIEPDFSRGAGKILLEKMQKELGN
row,SMILES,% Inhibition @ 10 uM
1,COc1ccc(NC(=O)COc2cccc(C(C)=O)c2)cc1,-3.92%
2,CCOc1cccc(/C=N\n2cnnc2)c1O,6.23%
3,CCCC(=O)Nc1c(O)nc2ccccc2c1O,31.7%
4,CCC(C)Nc1nc2c(S(=O)(=O)c3ccc(C(C)C)cc3)nnn2c2ccccc12 (stereo not shown),-10.5%
5,CCOC(=O)N1CCC(NC(=O)c2cc3n(n2)C(C(F)(F)F)CC(c2ccc(OC)cc2)N3)CC1 (stereo not shown),3.66%
6,CCN1CCN(C(c2cccc(F)c2)c2sc3nc(C)nn3c2O)CC1 (stereo not shown),-4.69%
7,CCCCNC(=O)C1CCN(C(=O)C2CCN(S(=O)(=O)c3ccc(C)cc3)CC2)CC1,-1.34%
8,CC1CCC(C(=O)NC(C(=O)NCCCN2CCOCC2)C(C)C)CC1 (stereo not shown),4.02%
9,CC(C)OCCCNC(=O)c1cc2c(=O)oc3ccccc3c2s1,2.73%
10,COc1ccc(C(=O)n2c(-c3ccco3)nc3ccccc32)cc1,3.72%
11,COc1ccc(-c2cc(C(=O)NCCC3=CCCCC3)[nH]n2)cc1,-2.37%
12,CCC1CCCCN1CCCNC(=O)Cn1cc2c(n1)CCCC2 (stereo not shown),1.8%
13,Cc1c(Cl)cccc1NC(=O)CC(=O)Nc1cccc(Cl)c1C,6.51%
14,CC1C(=O)C(C)C(c2cc(Cl)ccc2O)NC1c1cc(Cl)ccc1O (stereo not shown),1.02%
15,Cc1ccc(-n2c(C)cc(C(=O)C(=O)Nc3nncs3)c2C)c(C)c1,0.655%
16,O=C(Nc1nn[nH]n1)C1CCCCC1,1.8%
17,Cc1ccc(C)c(S(=O)(=O)Nc2ccc(O)cc2)c1,-0.088%
18,CCN1CCCC1CNc1ncnc2c1cnn2-c1cccc(Cl)c1 (stereo not shown),2.07%
19,CCc1ccccc1CNC(=O)[C@H](CCSC)N1Cc2ccccc2C1=O,-6.03%
20,CC1CN(C(=O)C2CC3CCC2C3)C(C)CN1C(=O)C1CC2CCC1C2 (stereo not shown),2.13%
21,C=CCNC(=O)c1ccc(CN2CCc3ccccc3C2)cc1,1.39%
22,Cc1nn(CCCC(=O)NCCN2CCOCC2)c(=O)c2c1sc1ccccc12,-6.3%
23,COc1ccc(CNC(=O)CN(C)S(=O)(=O)c2cc(Br)cnc2N)cc1,-5.37%
24,Cc1ccc2[nH]c(SCC(=O)Nc3ccc(Br)cc3)nc2c1,-1.94%
25,CCCN1CCN(C(=O)C(c2ccccc2)N2Cc3ccccc3C2=O)CC1 (stereo not shown),7.62%

row,SMILES,% Inhibition @ 10 uM
1,Cc1nonc1NCn1cnnn1,1.37%
2,O=C(c1ccc(N2C(=O)C3C4C=CC(C4)C3C2=O)cc1)N1CCCCCC1 (stereo not shown),-2.18%
3,O=C(NCC1(c2ccccc2)CCCC1)c1ccc(NC(=O)c2ccco2)cc1,0.161%
4,NC(=O)CC(=O)NC12CC3CC(CC(C3)C1)C2,0.827%
5,CCOC(=O)C1=c2s/c(=C/c3cccs3)c(=O)n2C(N)=C(C#N)C1c1cccs1 (stereo not shown),1.67%
6,O=C(O)c1cc(Cl)ccc1NS(=O)(=O)c1cccc2nsnc12,4.8%
7,C=CCSC1=C(C#N)C2(CCCCC2)C(C#N)C(=O)N1 (stereo not shown),-0.736%
8,O=C1CC(c2ccc(Cl)cc2)N2CCNC2=C1C(=O)Nc1ccccc1 (stereo not shown),-4.67%
9,O=C(c1ccc(CS(=O)(=O)c2c(Cl)cccc2Cl)o1)N1CCCCCC1,-1.28%
10,CC1CC(C)CN(CCCNC(=O)c2ccc(CNS(=O)(=O)c3ccc(F)cc3)cc2)C1 (stereo not shown),-0.971%
11,CCOC(=O)c1s/c(=N\C(=O)c2ccc(OC)c(OC)c2)n(C)c1C,4.67%
12,CCN(CC)c1ccc2cc(-c3nc4ccccc4o3)c(=O)oc2c1,-0.239%
13,Cc1ccc2c(c1)-c1c(cnn1CC(=O)N(C)CCC#N)CO2,-6.95%
14,Cc1ccc(C(=O)N/C(=C\c2cccs2)C(=O)N2CCCC2)cc1C,-0.968%
15,FC(F)(F)c1nnc2ccc(N3CCN(C(c4ccccc4)c4ccccc4)CC3)nn12,-4.04%
16,Cc1cc(NC(=O)COCc2cc(-c3ccc(F)cc3)on2)no1,0.44%
17,Cc1ccc2c(c1)-c1c(cnn1CC(=O)NCCOC13CC4CC(C)(CC(C)(C4)C1)C3)CO2,-6.42%
18,Cc1ccccc1Cn1cnc2c(cnn2-c2ccccc2)c1=O,-0.0309%
19,CCCCOc1ccc(C(=O)NC2=NC(=O)CC(c3ccccc3Cl)N2)cc1 (stereo not shown),0.6%
20,Cc1ccc(-c2cc(C(F)F)n3ncc(C(=O)N(C)Cc4cnn(C)c4)c3n2)cc1,-1.88%
21,COc1cccc(OCC(=O)N(Cc2nc(-c3ccccc3)no2)C(C)C)c1,-3.68%
22,CC1=C(C(=O)OCc2ccccc2)C(c2cccc(F)c2)C2=C(O)CC(C)(C)CC2=N1 (stereo not shown),1.13%
23,Cc1ccc(-c2c(C#N)c(N)nc3c2CCCCC3)o1,-3.14%
24,CCS(=O)(=O)n1nc(-c2ccc(Cl)cc2)nc1SC,3.88%
25,COc1ccc(-c2c(C)nn3c(N4CCN(C)CC4)cc(C)nc23)cc1OC,-3.7%

row,SMILES,% Inhibition @ 10 uM
1,O=C(COc1ccccc1Cl)N1c2ccccc2Sc2ccccc21,-2%
2,Cc1nc(-c2ccc(NC(=O)c3c(C)nc4sccn34)cc2)cs1,5.66%
3,Cc1cccc(NC(=O)c2cccc(C(=O)Nc3cccc(C)c3)n2)c1,-2.85%
4,O=C(c1cc(-c2ccccc2)nc2ccccc12)N1CCC2(CC1)OCCO2,-5.92%
5,Cc1ccc(/C=C2\CCC/C(=C\c3ccc([N+](=O)[O-])cc3)C2=O)cc1,2.4%
6,FC(F)(F)C(Oc1nc(NC2CCCCC2)nc(N2CCOCC2)n1)C(F)(F)F,3.34%
7,N#C/C(=C\Nc1ccccc1Cl)C(=O)NC(=O)c1ccccc1,-2.87%
8,Cc1ccc(-c2nnc3sc(NC(=O)c4ccc(F)cc4)nn23)cc1,6.19%
9,Oc1ncnc2c1cnn2Cc1ccc(Cl)cc1Cl,-1.66%
10,CCOc1ccccc1C(=O)NCc1ccccc1OC,2.33%
11,Cc1ccccc1NC(=O)c1sc2nc(-c3cccs3)ccc2c1N,7.48%
12,CCOc1ccc(N2C(=O)CC(N3CCN(C4CCc5ccccc5C4)CC3)C2=O)cc1 (stereo not shown),-8.36%
13,Cc1cccc(C(=N)NOC(=O)CCCc2ccccc2)c1,1.96%
14,c1ccc(CN2CCC(NCCC(c3ccccc3)c3ccccc3)CC2)cc1,1.57%
15,CC(=O)c1sc2sc3ccccc3c2c1C,2.69%
16,CCCC/C(=N\c1ccc(OC)cc1)C1=C(O)CCCC1=O,-1.86%
17,COc1ccc(S(=O)(=O)Nc2ccc(S(=O)(=O)N3CCCC3)cc2)cc1OC,1.88%
18,O=C(c1cc2ccc3cccnc3c2[nH]1)N1CCOCC1,0.36%
19,CCOc1nc(Nc2ccc(C(C)C)cc2)nc(OCC)n1,-0.582%
20,Cn1c(=O)c2nc(-c3ccc4ccccc4n3)[nH]c2n(C)c1=O,-3.33%
21,CN1C(=O)/C(=C/c2ccccc2)S/C1=N/c1ccc(Cl)c(C(=O)O)c1,3.04%
22,CCCn1c(CNC(C)=O)nc2ccccc21,-1.73%
23,CC(C)CCNC(=O)CNC(=O)c1cccs1,0.387%
24,CC1=C(C(=O)N2CCOCC2)C(c2ccccc2F)C2=C(O)CCCC2=N1 (stereo not shown),4.99%
25,CC(=O)c1ccc(NC(=O)c2c(-c3ccccc3)noc2C)cc1,4.37%

row,SMILES,% Inhibition @ 10 uM
1,O=S(=O)(c1ccccc1)N1N=C(c2ccccc2)CC1c1ccco1 (stereo not shown),9.7%
2,Cc1ccsc1C1CC(=O)Nc2[nH]nc(-c3ccc(Cl)cc3)c21 (stereo not shown),8.01%
3,Cc1cc(Cl)ccc1NC(=O)C1CCN(C(=O)c2ccc(Br)cc2)CC1,4.32%
4,C=CCO/C(O)=C1\C(C)=NC(SCC(=O)NC2CCCCC2)=C(C#N)C1c1ccco1 (stereo not shown),9.01%
5,Cc1ccccc1OCC(=O)Nc1ccc(C(=O)c2ccccc2)cc1,-10.4%
6,CCN1C(=O)C(=CNc2cc(Cl)ccc2Cl)C(=O)N(CC)C1=O,-4.75%
7,CCC(C)C(=O)c1[nH]c2ccccc2c1C(=O)O (stereo not shown),2.7%
8,O=c1oc2cc(O)ccc2cc1-c1csnn1,8.41%
9,COc1cccc(-c2cc(C(=O)Nc3cnn(C45CC6CC(CC(C6)C4)C5)c3)on2)c1,9.55%
10,Cc1ccccc1Sc1nc2ccccc2[nH]1,1.79%
11,OC(CN1CCCC1)Cn1c2ccc(Br)cc2c2cc(Br)ccc21 (stereo not shown),0.177%
12,Cc1ccccc1C1c2ccccc2SC12CCN(C)CC2 (stereo not shown),-3.9%
13,Cc1ccc(CNC(=O)C2c3ccccc3C(=O)N3CCc4ccccc4C23)o1 (stereo not shown),-3.12%
14,CCOC(=O)C1=C(NC(=O)c2ccc(C)cc2)S/C(=C\C=C\c2ccccc2)C1=O,1.52%
15,COc1cccc(C2C(C(=O)c3ccccc3)=C(O)C(=O)N2CCC(=O)O)c1 (stereo not shown),-9.6%
16,Cc1cc(/C=C2/C(=N)N3C(=NC2=O)SN=C3S(=O)(=O)C(C)C)c(C)n1-c1ccccc1F,6.59%
17,Clc1ccc(Cn2c(CN3CCCC3)nc3ccccc32)cc1,1.26%
18,Cc1cc(NC(=O)NC(=O)c2cccc(OC(F)(F)C(F)F)c2)no1,0.475%
19,CCn1c2ccccc2c2cc(NC(=O)c3cccnc3)ccc21,-5.16%
20,CCc1ccc(-n2c(N)c(C(=O)OC)c3nc4ccccc4nc32)cc1,3.59%
21,COc1ccc(-c2cc(C(=O)N3CCN(C(=O)c4ccccc4F)CC3)[nH]n2)cc1,-1.87%
22,Cc1nnc(NC(=O)CSc2ncnc3ccccc23)s1,-9.16%
23,CC(C)N(C(=O)c1ccccc1C(=O)O)C(C)C,3.98%
24,Cn1c(=O)[nH]c(=O)c2[nH]c(-c3ccc(O)cc3)nc21,-1.72%
25,Fc1ccc(N2CCN(CC(c3ccccc3)c3ccccc3)CC2)cc1,4.8%
